From publication PMC4336329 (PLoS ONE, 2015) come the findings set out here.

Molecules are shown by their SMILES. Out of some 310,000 compounds screened, about 2,200 (0.71%) showed an effect of 50% or more. Effects have a minus sign here. Some of the results follow.

The assay deals with human ether-à-go-go-related gene (hERG) potassium channel (human, UniProt Q12809). The experiment in a line: primary screen, population patch clamp on CHO cells stably expressing hERG.
Sequence of human ether-à-go-go-related gene (hERG) potassium channel (Q12809 whole entry, looked up): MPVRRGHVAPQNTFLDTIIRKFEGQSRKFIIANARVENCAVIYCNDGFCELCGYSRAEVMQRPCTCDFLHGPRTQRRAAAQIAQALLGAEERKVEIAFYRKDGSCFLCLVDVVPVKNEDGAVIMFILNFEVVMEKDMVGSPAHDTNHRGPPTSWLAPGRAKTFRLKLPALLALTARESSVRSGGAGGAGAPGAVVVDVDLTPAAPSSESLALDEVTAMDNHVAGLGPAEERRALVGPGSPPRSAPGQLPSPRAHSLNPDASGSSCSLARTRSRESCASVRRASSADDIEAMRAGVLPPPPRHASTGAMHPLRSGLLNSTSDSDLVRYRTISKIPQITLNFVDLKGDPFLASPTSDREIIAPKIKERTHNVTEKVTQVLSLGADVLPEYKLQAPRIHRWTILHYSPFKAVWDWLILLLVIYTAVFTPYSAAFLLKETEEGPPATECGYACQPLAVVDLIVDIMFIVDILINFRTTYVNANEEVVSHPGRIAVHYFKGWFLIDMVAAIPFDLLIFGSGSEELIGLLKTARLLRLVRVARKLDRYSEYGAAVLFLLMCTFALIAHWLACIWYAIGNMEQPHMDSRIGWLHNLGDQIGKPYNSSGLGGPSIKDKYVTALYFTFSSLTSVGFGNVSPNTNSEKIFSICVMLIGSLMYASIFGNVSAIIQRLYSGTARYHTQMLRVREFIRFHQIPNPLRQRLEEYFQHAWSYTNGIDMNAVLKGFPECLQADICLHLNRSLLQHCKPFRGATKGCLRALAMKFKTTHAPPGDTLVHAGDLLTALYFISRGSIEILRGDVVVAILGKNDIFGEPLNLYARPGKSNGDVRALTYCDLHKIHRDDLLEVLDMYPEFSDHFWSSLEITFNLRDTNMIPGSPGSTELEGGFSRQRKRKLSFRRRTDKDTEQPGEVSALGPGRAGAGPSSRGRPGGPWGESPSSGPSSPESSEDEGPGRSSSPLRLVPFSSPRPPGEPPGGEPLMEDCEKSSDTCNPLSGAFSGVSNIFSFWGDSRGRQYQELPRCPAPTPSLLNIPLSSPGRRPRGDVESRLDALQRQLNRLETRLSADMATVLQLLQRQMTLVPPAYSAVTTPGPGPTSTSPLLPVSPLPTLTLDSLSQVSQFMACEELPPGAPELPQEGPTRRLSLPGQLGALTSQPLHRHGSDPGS
Consider `CC(C)CNC(=S)Nc1ccc(Oc2ccccc2)cc1`, for which the “hERG current change (%, negative = inhibition) at 1uM” value is reported as 17%.
With `CN1C(=O)c2c(sc3c2CC(C)(C)SC3)N2CCN=C12.Cl` the figure was -4.34%; with `O=C(Cn1cnc2c(nnn2Cc2ccccc2)c1=O)NCc1ccccc1Cl`, 13.4%; with `COc1ccccc1-n1cc(C(=O)NCC(=O)N2CCN(Cc3ccccc3)CC2)c2ccccc2c1=O`, 2.9%.
With `COc1ccccc1CNC(=O)c1cc2sccc2n1C` the figure was 4.15%; with `CC(=O)c1cccc(S(=O)(=O)N2CCC(C(=O)OC3CCOC3=O)CC2)c1` (stereo not shown), -2.02%; with `CC1c2[nH]c3ccccc3c2CCN1S(C)(=O)=O` (stereo not shown), 1.6%.
With `CC(=O)OCC[n+]1c(C)n(-c2ccccc2)c2ccc(Cl)cc21.[I-]` the figure was 5.45%; with `CCn1cc(C(=O)NCc2ccccc2OC)c(=O)c2cc(S(=O)(=O)N(C)C)ccc21`, 10.2%.
`CCCn1c(NC(=O)c2ccc([N+](=O)[O-])o2)nc2ccccc21`: the “hERG current change (%, negative = inhibition) at 1uM” value is listed as 8.32%.
With `Cc1ccc(OCC(=O)Nc2ccccc2Sc2ccccc2)c([N+](=O)[O-])n1` the figure was 13.9%; with `O=C(O)c1ccc(NC(=O)c2ccccc2NC(=O)c2ccccc2Br)cc1`, 15.7%; with `C=CCOn1c(=O)c(-c2cc3ccccc3o2)[n+]([O-])c2ccccc21`, 11.7%.
With `COc1cccc(-c2onc3ccc(C(C)=O)cc23)c1` the figure was 10.8%.
With `CCOc1ccc(S(=O)(=O)N2CCC(C(=O)OC(C)C(=O)N3CCOCC3)CC2)cc1` (stereo not shown), the “hERG current change (%, negative = inhibition) at 1uM” value is -6.88%.
With `Cc1ccc(NC(=O)CS(=O)CC(=O)N(c2ccc(C)cc2)C(C)C(=O)NC2CCCCC2)cc1` (stereo not shown) the figure was 7.66%.
Turning to `O=C(c1cc2ccccc2oc1=O)N(Cc1ccccc1)C1CCS(=O)(=O)C1` (stereo not shown), the “hERG current change (%, negative = inhibition) at 1uM” value is -0.474%.
With `CCC(=O)Nc1ccc(Cl)c(NC(=O)C(C)C)c1` the figure was 6.47%; with `CCOC(=O)C1=C(C)N=C2SCCC(=O)N2C1c1sccc1C` (stereo not shown), 5.04%.
With `Cc1ccc(C2CC(c3ccc(C)cc3)n3nc(N)nc3N2)cc1` (stereo not shown) the figure was 3.75%.
With `COc1ccc(NC(=O)Nc2nnc(N3CCC(C)CC3)s2)cc1OC` the figure was 8.3%; with `C=CCn1c(SCc2c(C)noc2C)nc2sc(C)c(C)c2c1=O`, 1.2%.
On to `COc1cc2nc(CN(C)Cc3nc4ccccc4c(=O)[nH]3)[nH]c(=O)c2cc1OC`, for which the “hERG current change (%, negative = inhibition) at 1uM” value is -1.41%.
With `Cc1ccc(-c2nn(CC(=O)Nc3cccnc3)c(=O)c3ccccc23)cc1` the figure was 13.5%; with `CCn1c(CCNC(=O)c2ccc(Cl)c(Cl)c2)nnc1SCCOc1ccc(OC)cc1`, 5.32%; with `CC(=O)c1ccc(N2CCN(C(=O)c3ccc(Cl)c(NC4=NC5CS(=O)(=O)CC5S4)c3)CC2)cc1` (stereo not shown), 7.9%.
With `O=C(C1=C(O)C(=O)N(Cc2ccco2)C1c1cccc([N+](=O)[O-])c1)c1ccco1` (stereo not shown) the figure was 15.3%; with `O=C1C=C(c2cccc3c2sc2ccccc23)C[C@@H](c2ccc(Cl)cc2)C1`, 7.43%.
With `COCCN1Cc2cccc(C(=O)Nc3c(C)cccc3C)c2C1=O` the figure was 8.78%.
For the compound `COc1cc(C2NC(=O)NC(O)(C(F)(F)F)C2C(=O)c2cccs2)ccc1O` (stereo not shown), the “hERG current change (%, negative = inhibition) at 1uM” value is 1.23%.
With `CCn1nc(C)c(Br)c1-c1nc(CS(=O)(=O)c2ccc(F)cc2)no1` the figure was 10.5%.
With `Cc1sc(NC(=O)c2cccs2)nc1-c1ccccc1` the figure was 5.02%; with `O=C(COC(=O)CNC(=O)c1ccccc1Cl)Nc1ccccc1Cl`, 11.7%.
With `COc1cc2nc(CN3CCN(S(=O)(=O)c4ccc(Cl)cc4)CC3)[nH]c(=O)c2cc1OC` the figure was -4.64%.
Regarding `COc1ccc(OC)c(-n2c(SCC(=O)Nc3cc(C)on3)nnc2-c2c[nH]c3ccccc23)c1`, the “hERG current change (%, negative = inhibition) at 1uM” value came to 0.87%.
Turning to `O=C(CSc1nc(-c2ccccc2)cc(=O)[nH]1)NCc1ccc2c(c1)OCO2`, the “hERG current change (%, negative = inhibition) at 1uM” value was 6.45%.
With `O=C(Nc1ccc2c(c1)OCCO2)c1ccc(Cl)cc1` the figure was 12.3%.
With `CNC(=S)N(Cc1ccco1)Cc1cc2cc(OC)ccc2[nH]c1=O` the figure was 18.8%; with `COc1ccc(NC(=O)CSc2nnc(CNc3ccc(C)cc3)n2C)cc1`, 12%.
With `COc1ccc(Cl)cc1NC(=S)NCCCN1CCCC1=O` the figure was 10.7%.
As to `COc1cc2c(cc1OC)C(NC(=O)c1ccc(C)cc1)CC2=O` (stereo not shown), the “hERG current change (%, negative = inhibition) at 1uM” value was 7.58%.
With `COc1ccc(S(=O)(=O)N2CCN(C(=O)NC3CCCCC3)CC2)cc1OC` the figure was -3.33%; with `O=C(CCCc1ccccc1)Nc1ccccn1`, 7.28%; with `CCCn1c2ccccc2c2nnc(SCCN3CCOCC3)nc21`, 3.75%.
With `COc1cccc2cc(C(=O)CS(=O)(=O)c3ccc(C(C)(C)C)cc3)c(=O)oc12` the figure was 12.3%; with `CN(CC(=O)O/N=C(\N)c1ccccn1)S(=O)(=O)c1ccccc1`, 10.9%.
With `Cc1ccc(C)c(OCc2ccc(C(=O)N3N=C(C(F)F)CC3(O)C(F)F)o2)c1` (stereo not shown) the figure was 19.8%; with `O=C1C2C3C=CC(C3)C2C(=O)N1CCCCN1C(=O)C2C3C=CC(C3)C2C1=O` (stereo not shown), 3.61%; with `COc1ccc(C(C(=O)Nc2ccc(C(C)C)cc2)N(C)C(=O)CNC(C)=O)cc1` (stereo not shown), -1.97%.
On to `Fc1ccc(C(CNC(=S)NC2CCCCC2)N2CCOCC2)cc1` (stereo not shown), for which the “hERG current change (%, negative = inhibition) at 1uM” value stood at 9.37%.
With `CCc1cccc(C)c1NC(=O)COC(=O)Cc1ccsc1` the figure was 12.3%.
With `Cc1c(C(=O)NCC2CCCO2)oc2ccccc12` (stereo not shown) the figure was 6.19%; with `O=C(Nc1ccccc1F)C1CCN(C(=O)NCc2ccccc2)CC1`, 16.3%.
With `O=C(CSc1ncn[nH]1)Nc1ccc(Cl)c(S(=O)(=O)N2CCOCC2)c1` the figure was 12.5%.
`CCOc1ccc2ccccc2c1C(=O)Nc1cc(=O)n(C)c(=O)n1C`: the “hERG current change (%, negative = inhibition) at 1uM” value was determined as 5.6%.
With `CN(C(=O)Cn1nc(C(=O)O)c2ccccc2c1=O)c1ccccc1` the figure was 5.29%; with `COc1cccc(/C=N/NC(=O)c2nc(-c3ccccc3)cc(-c3ccccc3)n2)c1O`, 5.88%; with `CCCC(=O)N=C1SC2CS(=O)(=O)CC2N1c1ccc(-c2nc3ccc(C)cc3s2)cc1` (stereo not shown), 10.9%.
On to `CCCC(=O)Nc1sc2c(c1C(=O)OC)C(C(=O)OC)CC2` (stereo not shown), for which the “hERG current change (%, negative = inhibition) at 1uM” value is on record as 6.32%.
With `Clc1cccc(-c2ccnc3nc(-n4cccc4)nn23)c1` the figure was 21.8%.
With `COc1ccc(NC(=O)CN2CCC(C(N)=O)(N3CCCCC3)CC2)c(OC)c1` the figure was 5.15%; with `COc1cc(CN2CCCC(C)C2)ccc1OCc1ccccc1` (stereo not shown), -1.95%; with `O=C(Nc1nc2c(F)c(F)c(F)cc2s1)c1ccco1`, 13.2%.
With `CC(C)CCSc1nc2[nH]ncc2c(=O)[nH]1` the figure was 1.31%; with `CSCCC(NC(=O)c1ccccc1)C(=O)Nc1ccc(NC(C)=O)cc1` (stereo not shown), 0.138%; with `CCc1ccccc1NC(=O)CNCc1ccccc1.[O-][Cl+3]([O-])([O-])O`, 14.4%.
`Cc1ccccc1C(=O)O/N=C(\N)c1ccccc1`: the “hERG current change (%, negative = inhibition) at 1uM” value amounted to 14.7%.
With `Cc1ccc(CC(=O)Nc2ccc(S(=O)(=O)Nc3ncccn3)cc2)cc1` the figure was 15.6%; with `COc1cccc(Nc2c(F)c(F)c(F)c(F)c2C(=O)O)c1`, 2.13%; with `Cc1sc2ncnc(SCC(=O)N(C(C)C)C(C)C)c2c1C`, -4.12%.
With `Cc1ccc(C(=O)Nc2cccc(C(F)(F)F)c2)cc1NC(=O)c1cnnc2ccccc12` the figure was 8.15%; with `COCCNC(=O)CN(C(=O)Cn1nnc2ccccc21)c1cc(C)cc(C)c1`, -10%; with `CC/C(C)=N/NC(=S)NCc1ccco1`, 12%.
With `O=c1c(Cl)c(NC2CC2)cnn1-c1ccccc1` the figure was 3.96%; with `COCCNC(=O)C12CC3CC(C1)CC(c1ccccc1)(C3)C2`, 14.4%; with `O=C(O)CCN1CCc2ccccc21`, 9.91%.
On to `Cc1ccsc1C(=O)C1CCCN(Cc2cc(C(C)C)n[nH]2)C1` (stereo not shown), for which the “hERG current change (%, negative = inhibition) at 1uM” value is recorded as -5.51%.
For `Cc1ccc(O)c(N=Cc2cccs2)c1`, the “hERG current change (%, negative = inhibition) at 1uM” value turned out to be 3.98%.
Regarding `Cc1ccc(NS(=O)(=O)c2ccc(C)c(NC(=O)COc3ccc4ccccc4c3)c2)c(C)c1`, the “hERG current change (%, negative = inhibition) at 1uM” value is reported as -3.23%.
On to `COC(=O)C1=C(N)Oc2cc(C)n(CC3CCCO3)c(=O)c2C1c1ccccc1OC` (stereo not shown), for which the “hERG current change (%, negative = inhibition) at 1uM” value was determined as 4.76%.
With `S=c1[nH]c2ccc(Cl)cc2[nH]1` the figure was 14.3%; with `O=C(CSc1ncn[nH]1)NCCc1ccc(Cl)cc1Cl`, 12.4%.
Take `COc1ccc(-c2[nH]ncc2CN(C)C(C)c2ccon2)cc1F` (stereo not shown): the “hERG current change (%, negative = inhibition) at 1uM” value is -4.85%.
With `CC1(C)CC(=O)C2=C(C1)NC(=O)CC2c1cc2c(cc1Br)OCO2` (stereo not shown) the figure was -4.65%; with `COc1ccc(S(=O)(=O)N2CCCC2CNC(=O)C(=O)NCc2cccs2)cc1` (stereo not shown), 12.8%; with `CC1CCN(CCCn2c(SCC(=O)Nc3ccccc3Cl)nc3ccccc3c2=O)CC1`, -34.1%.
With `Cc1cc(C)cc(-n2c(C)cc(/C=N/NC(=O)c3ccncc3)c2C)c1` the figure was 14.3%; with `O=C(O)[C@H]1NC[C@H]2C[C@H]21`, 11.9%.
